# Data as given in the RNAGym collection of RNA variant scans (doi:10.7554/elife.90254).
# The source gives no read counts; variants with many changes may rest on few reads.
# B1: LINE1-mini (parent)
# chain: GGCAGAGCUCAACACAGCGUGGCAAAGUGGCUGUGGCUAGACUGCC
# Variants of: B1
# Assay: self-cleavage, relative activity (ratio to wild type); higher = more cleavage; in vitro, sequencing; the parent is a self-cleaving ribozyme
row,Variant,self-cleavage
1,G5A G21C G30U C37G,0.05
2,G5A G21U A24U A26G C46U,0.03
3,G5A G21U A39G C46G,0.05
4,G5A G21U C42G,0.22
5,G5A G21U C46G,0.18
6,G5A G22A G40A,0.1
7,G5A G22A U38G C45U,0.02
8,G5A G22U C23G C46A,0.05
9,G5A G27A G30U,0.57
10,G5A G27A U28G,0.3
11,G5A G27C G40U,0.06
12,G5A G27U A39C,0.03
13,G5A G27U C42G,0.04
14,G5A G27U G29C G35U C45U,0.41
15,G5A G27U G44U,0.04
16,G5A G29U G40A C46U,0.04
17,G5A G29U G44U C46A,0.09
18,G5A G30U G35A,0.09
19,G5A G30U U32G G36C U38A A41U,0.02
20,G5A G35C A39U,0.12
21,G5A G35C C37A C42A C45A,0.16
22,G5A G35C G44C,0.04
23,G5A G40U U43A,0.07
24,G5A G44U C46U,0.03

row,Variant,self-cleavage
1,G5A U9A A11C A16C C31U U34C,0.01
2,G5A U9A A11U A25C G30U,0.03
3,G5A U9A A14G C15G A25C U38A A39C,0.07
4,G5A U9A C15U C42A,0.63
5,G5A U9A U34C,0.3
6,G5A U9C A16U G29U C31A G36C G44U,0.1
7,G5A U9C C31A,0.02
8,G5A U9G A39G,0.18
9,G5A U9G G21C,0.05
10,G5A U9G G22A,0.01
11,G5A U9G U20C G27C A39U,0.08
12,G5A U20A C31A,0.01
13,G5A U20A G40A,0.02
14,G5A U20C G21A C23U G33C G44U,0.04
15,G5A U20G G33C,0.04
16,G5A U28G C42U,0.89
17,G5A U32G C46U,0.05
18,G5A U32G G33U,0.02
19,G5A U38A C45A,0.03
20,G5C A6C A11C G19A G29C C42U,0.03
21,G5C A6C G33A,0.11
22,G5C A6G A26G U38A,0.14
23,G5C A6G A26G U43A G44C,0.01
24,G5C A6G C23A A25C G33C G36A,0.06

row,Variant,self-cleavage
1,G5C A6U A16C U20G G35C G44C,0.02
2,G5C A6U G7U U34C,0.02
3,G5C A6U G30C C42U C46A,0.02
4,G5C A11C G30A C46G,0.04
5,G5C A11G A14U G21C A25C G40U,0
6,G5C A11G C37A,0.02
7,G5C A11G C37U C42U,0
8,G5C A11U A12U A16G C37G,0.01
9,G5C A11U C15G,0.02
10,G5C A11U C45U,0.02
11,G5C A12C C18G U28G,0
12,G5C A12C U28C U32G,0.01
13,G5C A12G G33A,0.04
14,G5C A12U C23G A25U C42G,0.11
15,G5C A14C C18U G19U,0.12
16,G5C A14C C46G,0.02
17,G5C A14C U28G G30C A39C,0.01
18,G5C A14G G19A U32G C37A,0.04
19,G5C A14G U38C,0.03
20,G5C A14U A16C G22A U43A,0.11
21,G5C A14U A41C,0.04
22,G5C A14U G21C,0.04
23,G5C A14U G35U,0.02
24,G5C A14U G40A C46G,0.01

row,Variant,self-cleavage
1,G5C A16C C23U G30U,0.04
2,G5C A16C G30A,0.05
3,G5C A16C U38A,0.08
4,G5C A16G A25G G33A U43G,0
5,G5C A16G C37U A39G,0
6,G5C A16U A26U,0.03
7,G5C A16U C18A,0.04
8,G5C A16U C45G,0.02
9,G5C A24U G35A C37A,0.09
10,G5C A25G A26G C45G,0.01
11,G5C A25G G29C C46U,0.04
12,G5C A25U U34C U38G,0.02
13,G5C A26C G35A C37G,0.09
14,G5C A26C G36U,0.02
15,G5C A26C U38G,0
16,G5C A26G C31A,0.07
17,G5C A26U C46U,0.03
18,G5C A26U G35A,0.08
19,G5C A41G G44A,0.04
20,G5C C8A C10A C31A U32A,0.05
21,G5C C8A C13A G21U C42U,0.09
22,G5C C8A C13A G35C,0.2
23,G5C C8A C15G,0.05
24,G5C C8A C18G U20A G29U G30A G33C U38A,0.04

row,Variant,self-cleavage
1,G5C C8A U20G G29C,0.06
2,G5C C8G A16U C31G U32G G36U U38C,0.09
3,G5C C8G C10A A24C,0.01
4,G5C C8G C13A G29U,1.22
5,G5C C8G G35A,0.01
6,G5C C8G U9C C23A,0.03
7,G5C C8U A16G C23U C42U G44A,0.03
8,G5C C8U C13U,0.1
9,G5C C8U U9C G35A,0.13
10,G5C C10A A16G,0.02
11,G5C C10A A24U G27U,0.02
12,G5C C10A A25C C31A C42A,0.01
13,G5C C10A C18U G35U,0
14,G5C C10A G27U G40C,0.02
15,G5C C10A U28G C46A,0.02
16,G5C C10A U38C,0.04
17,G5C C10G A11C A12U C15A G17C C23A,0.01
18,G5C C10G A16C A41U,0.02
19,G5C C10G A16U G21C,0.03
20,G5C C10U A16G A26G G40C,0.02
21,G5C C10U G22C,0.01
22,G5C C10U G22C C31A,0.02
23,G5C C10U G22U G35U G36C,0.03
24,G5C C13A A25C G33A C37A,0.14

row,Variant,self-cleavage
1,G5C C13A C15A G44U,0.02
2,G5C C13G C45A,0
3,G5C C13G G17A,0.03
4,G5C C13G G19U,0.03
5,G5C C13G G33A U34A,0.28
6,G5C C13G G33C U43C C45U,0.07
7,G5C C13G G35A,0
8,G5C C13G U20C C31G,0.01
9,G5C C13U C15A U20A A24U,0.01
10,G5C C13U C18A,0.02
11,G5C C13U U34G A41G,0.02
12,G5C C15A A16U C23G G30U U32G G36C A41U,0.01
13,G5C C15G C18U C23G A26C G27U,0.01
14,G5C C15G G21U,0.03
15,G5C C15U A24C U38C A41C,0.07
16,G5C C15U A24U U43C,0.05
17,G5C C15U C37G C46U,0.06
18,G5C C15U G27A C37A G40U,0.15
19,G5C C18A A24C A25C A26C G29U G36A A41G,0
20,G5C C18A C37U,0.01
21,G5C C18A G21U G22U,0.07
22,G5C C18A G33U C37G,0.02
23,G5C C18G A25G G33U C46G,0.01
24,G5C C18G G21U,0.03

row,Variant,self-cleavage
1,G5C C18U C23A G27U C31G G40U C45G,0.01
2,G5C C18U C31U U32G U34A,0.02
3,G5C C18U G29C,0.02
4,G5C C18U G40A,0.02
5,G5C C18U U28C G44C,0.04
6,G5C C23A A26C C31U U38C U43A,0.01
7,G5C C23A G30U U38C,0.03
8,G5C C23G A25C G27C,0.03
9,G5C C23G C31A C37G C46U,0.02
10,G5C C23G G33C U43C,0.02
11,G5C C23G U28C G30C,0.03
12,G5C C23U U28C C45A,0.07
13,G5C C23U U38C,0.02
14,G5C C31G U34A C45A,0.01
15,G5C C31U U32G,0.1
16,G5C C37U G40A U43G,0.05
17,G5C G7A C10A A16C,0.07
18,G5C G7A G30A U43C,0.3
19,G5C G7C C13A G17U U32G,0.01
20,G5C G7C C13A G36U A41C,0.14
21,G5C G7C C13U C31U,0.1
22,G5C G7C C13U C46A,0.01
23,G5C G7C C15G G27U U32C,0.01
